# Laboratory results reported in PubChem BioAssay AID504845 (National Center for Advancing Translational Sciences (NCATS), 2011).
# Among all 390,000 compounds or so, about 150 (0.038%) were called active. Inconclusive means that the source gave no clear call. Such entries were picked first, then a sample of the others. Calls follow the shape of the dose curve; as a rule, active = well fitted inhibition curve with a large enough effect; inconclusive = small, poorly fitted or top-dose-only effect; inactive = no such curve, though single readings can be large or run the other way. Potencies beside an inconclusive call are fits to weak or partial responses and may not hold up.
# Biological target: Regulator of G-protein signaling 4 (Homo sapiens) (UniProt P49798)
# Assay: Inhibitors of Regulator of G Protein Signaling (RGS) 4: qHTS; also: nearly all actives have a fitted effect of over 75% in size
# Details: Transcreener GDP fluorescence polarization, RGS4-accelerated GTP hydrolysis; series mostly up to 114 µM
# How it was run: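 MLSMR compounds (23 nl, pin-transferred) preincubated 10 min at room temperature with a 500nM (2x) first reagent, then RGS4 at 900nM (2x) plus Transcreener GDP mix added; fluorescence polarization (620/688 nm) read before and after 90 min at 30 °C.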
# Potency is read from the fitted curve at half-maximal effect; tags tell the direction and shape of the fitted curve.
# Sequence of UniProt P49798 (P49798 whole entry, looked up): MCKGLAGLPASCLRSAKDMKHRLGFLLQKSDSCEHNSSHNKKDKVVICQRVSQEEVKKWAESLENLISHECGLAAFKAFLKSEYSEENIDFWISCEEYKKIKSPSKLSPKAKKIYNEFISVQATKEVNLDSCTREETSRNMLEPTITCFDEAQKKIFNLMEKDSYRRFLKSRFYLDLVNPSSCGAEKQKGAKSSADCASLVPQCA
row,Structure (SMILES),Potency
1,Cc1nc2cc(-c3cccc(F)c3)nn2c(C)c1CCC(=O)NC(C)CCc1ccco1 (stereo unspecified),"inconclusive: 50.1 µM [inhibitor, partial curve, poor fit]"
2,Cc1nc2c(c(=O)n1CCC1=CCCCC1)c1nc3ccccc3nc1n2/N=C/c1ccco1,"inconclusive: 56.2 µM [inhibitor, partial curve, poor fit]"
3,C=C(C)CNC(=S)N/N=C/C1=CCC2CC1C2(C)C (stereo unspecified),inactive
4,CC(C)(C)[C@]1(O)CCN2C[C@H]3c4ccccc4CCc4cccc(c43)[C@@H]2C1,"inconclusive: 42.3 µM [inhibitor, single point]"
5,Cc1ccc2nc(C)c(C(=O)N/N=C/c3cccs3)cc2c1,"inconclusive: 89.1 µM [inhibitor, single point]"
6,O=S(=O)(c1cccs1)N1CCN(CC(O)COc2cc(Cl)ccc2Cl)CC1 (stereo unspecified),inactive
7,O=C(CN1CCN(c2ccc(O)cc2)CC1)Nc1ccc2c(c1)OCCO2,"inconclusive: 79.4 µM [inhibitor, single point]"
8,Cc1[nH]n(-c2cccc(Cl)c2)c(=O)c1-c1ccccc1,inactive
9,COc1cccc(C(=O)CSc2nnc(CNS(=O)(=O)c3ccc(C)cc3)n2C)c1,"inconclusive: 79.4 µM [inhibitor, partial curve, poor fit]"
10,C=CCN(c1ccccc1C(=O)O)S(=O)(=O)c1ccc(C)cc1,"inconclusive: 100 µM [inhibitor, partial curve, poor fit]"
11,CCOc1ccc(C(=O)CCN2CCCCCC2)cc1,"inconclusive: 44.7 µM [inhibitor, partial curve, poor fit]"
12,Cc1nc2cc(-c3ccsc3-n3c(C)ccc3C)[nH]n2c(=O)c1Cl,"inconclusive: 39.8 µM [inhibitor, partial curve, poor fit]"
13,O=C(Nc1ccccc1-c1ccccc1)c1ccco1,"inconclusive: 89.1 µM [inhibitor, single point]"
14,Cc1cccc(NC(=O)CSc2ncc3c(n2)-c2ccccc2N(Cc2ccc(F)cc2)S3(=O)=O)c1C,"inconclusive: 70.8 µM [inhibitor, partial curve, poor fit]"
15,CN1CCc2c1nc1ccccc1c2N (tested in a mixture with another compound),inactive
16,O=S(=O)(NCC1CCCO1)c1cc(Cl)ccc1Cl (stereo unspecified),inactive
17,CC(=NNC(=S)N1CCCCCC1)c1ccccn1,"inconclusive: 79.4 µM [inhibitor, partial curve, poor fit]"
18,C=CCOc1c(Br)cc(/C=N/Nc2ccc(C(=O)O)cc2)cc1OCC,"inconclusive: 89.1 µM [inhibitor, partial curve, poor fit]"
19,CN(C(=O)c1ccc(OCC=C(c2ccccc2)c2ccccc2)cc1)c1ccccc1I,inactive
20,O=C(CSc1ncnc2c1nnn2Cc1ccccc1)NC1CCCCC1,inactive
21,CC(=O)c1cccc(NC(=O)Cn2nc(C)n3cccc3c2=O)c1,inactive

row,Structure (SMILES),Potency
1,CC1=CC(C)(C)N2C(=O)C(=O)c3cc(OC(=O)c4ccco4)cc1c32,"inconclusive: 28.2 µM [inhibitor, full curve, poor fit]"
2,CCC(c1nnnn1Cc1ccco1)N(Cc1ccccc1OC)Cc1cc2cc(C)ccc2[nH]c1=O (stereo unspecified),"inconclusive: 89.1 µM [inhibitor, single point]"
3,CCc1ccc(NC(=O)CCn2nc(-c3ccccc3OC)c3c(C)cc(C)nc32)cc1,"inconclusive: 89.1 µM [inhibitor, single point]"
4,CC(C)Cc1ccc(-c2cc(=O)[nH][nH]2)cc1,"inconclusive: 31.6 µM [inhibitor, full curve, poor fit]"
5,COc1ccc(CCNc2nc(-c3sc(C)nc3C)cs2)cc1OC,"inconclusive: 70.8 µM [inhibitor, partial curve, poor fit]"
6,CCC(=NCc1ccccc1)C1=C(O)C(C(=O)OC)C(C)(C)CC1=O (stereo unspecified),inactive
7,Cc1ccc(N2C(=O)c3ccccc3C2C(=O)c2ccc(O)cc2O)cc1 (stereo unspecified),"inconclusive: 50.1 µM [inhibitor, partial curve, poor fit]"
8,CCOC(=O)CC(=O)CSc1ncnc2c1cnn2-c1ccccc1,inactive
9,Cc1ccc(C)c(NC(=S)NNc2ccc(F)cc2F)c1,"inconclusive: 70.8 µM [inhibitor, partial curve, poor fit]"
10,O=C1C(=O)c2c(C(=O)c3ccccc3)coc2-c2ccccc21,"inconclusive: 28.2 µM [inhibitor, full curve, poor fit]"
11,O=C(COc1ccccc1)Nc1ccc(N2CCN(C(=O)c3cccs3)CC2)cc1,"inconclusive: 79.4 µM [inhibitor, partial curve, poor fit]"
12,COC(=O)CSc1nc2c(c(-c3ccco3)c1C#N)CCCC2,"inconclusive: 28.2 µM [inhibitor, full curve, poor fit]"
13,O=C(Nc1sc2c(c1C(=O)NCc1ccco1)CCCC2)c1cc(=O)c2ccccc2o1,inactive
14,Cc1c(Nc2cc(N3CCCC(C)C3)c3nonc3c2[N+](=O)[O-])c(=O)n(-c2ccccc2)n1C (stereo unspecified),"inconclusive: 79.4 µM [inhibitor, partial curve, poor fit]"
15,CC1(C)COC(=S)N1CCC#N,"inconclusive: 100 µM [inhibitor, single point]"
16,CNC(=S)N/N=C/c1ccc(-c2ccc(Cl)c([N+](=O)[O-])c2)o1,"inconclusive: 100 µM [inhibitor, single point]"
17,COc1ccccc1C1CCN(Cc2ccc3ccccc3c2)CC1,inactive
18,COc1ccc(NC(=S)NNC(=S)Nc2cccc(C(F)(F)F)c2)cc1,"inconclusive: 79.4 µM [inhibitor, partial curve, poor fit]"
19,COc1ccccc1CNC(=O)c1cc(S(=O)(=O)N2CCN(c3ccccc3)CC2)ccc1Cl,"inconclusive: 100 µM [inhibitor, single point]"
20,CCN(CC)C(=O)C1CCCN(C(=O)Nc2ccc3nsnc3c2)C1 (stereo unspecified),"inconclusive: 50.1 µM [inhibitor, partial curve, poor fit]"
